Our source for the binding signal (log2 normalized intensity) values is article PMC10726135.

Some of the results follow. At the low end of the ranking, values are background and their order means little. Measured with an extract: partners may take part in the binding.

The assay has as its target T1, HNF4alpha8 (COS-7 nuclear extract) (UniProt P41235-5).
T1 sequence: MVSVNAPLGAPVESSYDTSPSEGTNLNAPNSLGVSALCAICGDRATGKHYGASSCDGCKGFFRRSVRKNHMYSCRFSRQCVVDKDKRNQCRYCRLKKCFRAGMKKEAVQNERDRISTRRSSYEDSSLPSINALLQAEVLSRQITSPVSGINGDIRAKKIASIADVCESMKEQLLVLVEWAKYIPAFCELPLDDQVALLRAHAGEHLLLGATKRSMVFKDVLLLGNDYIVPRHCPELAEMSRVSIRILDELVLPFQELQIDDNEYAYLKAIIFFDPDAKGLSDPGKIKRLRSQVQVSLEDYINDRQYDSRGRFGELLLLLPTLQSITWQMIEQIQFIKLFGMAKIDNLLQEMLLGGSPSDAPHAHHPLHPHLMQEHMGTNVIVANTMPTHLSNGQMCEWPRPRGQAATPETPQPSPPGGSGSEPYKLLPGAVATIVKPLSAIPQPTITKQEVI
The assay can be described thus: protein-binding microarray. To be noted: COS-7 nuclear extract on double-stranded Agilent 4x180k PBM; binding buffer, salt, pH and temperature not given; high values mean tight binding; double strand, one strand shown; sequences stand for … in …GCCTAGGGAGATTAGAGTATCGGTCGA
In the case of GTAAAGGAGATTATCTAGACAAATTTGTTT, the binding signal (log2 normalized intensity) is -0.606.
With GAGGAAAACCAGCTCAGTGGAAATTGTCCT, the binding signal (log2 normalized intensity) amounted to 0.989.
On to GAAAGATTAAGAGGCTACAACCAGACTTGG, for which the binding signal (log2 normalized intensity) is -1.32.
In the case of TCAGGAATGTGACCCCTTTCATGAATAAAT, the binding signal (log2 normalized intensity) came out at 2.99.
The result for TGTGACTTTTATCTTAGGTAATAAGCCTGA reads 0.789.
Turning to AACAGAGCCCAAGGCAAAGCAGATGTGCTA, the binding signal (log2 normalized intensity) is -1.31.
For ACAATCTAAAAATGTTGAACTCACAAAAGT, the binding signal (log2 normalized intensity) was 1.42.
On to TATCTAGGATGAGAATCCACCTGCCTGCTT, for which the binding signal (log2 normalized intensity) is -1.27.
For the sequence CACATTCACACAATCAGTGTGTTGACATTT, the binding signal (log2 normalized intensity) is 1.63.
For GTCCTCACAATAATGAGAAACGCCTGATAT, the binding signal (log2 normalized intensity) is -1.35.
ACATGACCTTTGTCCGTTCCTGCCTGGAGC: the binding signal (log2 normalized intensity) was 5.37.
With AAATGGTGCAGCTGCTGAAACATTCAACTG the figure was -1.37; with CAGGGATCCCTGCAGCCCACAGCCCGCTGT, -1.11.
As to AGGAAGCTCCAGCGGGGTTTGAATCCCGGG, the binding signal (log2 normalized intensity) was -1.04.
As to CCCAAGTGCTCCTCCCCATCTCAGCCTCTC, the binding signal (log2 normalized intensity) was found to be 1.58.
With CAGCAAAAATAGCCAAAATAAAGCAGCAAA, the binding signal (log2 normalized intensity) is -1.25.
The result for CTGCCGCGCCACTGCGTCCAGCCACAATTA reads -1.27.
AGATGTCACAGGCAAGCAAGTGACATGTTG: the binding signal (log2 normalized intensity) is -1.14.
The result for TGCAGCTGGGAGATAAGATAGCACCAGCCC reads -1.36.
For the sequence ATGAAAGGTCCTTGAAAGTAAGCAGACACT, the binding signal (log2 normalized intensity) was -1.22.
Take CCAGTGGCCCCTGAGCACTGTCTCAGGGTC: the binding signal (log2 normalized intensity) was determined as 1.97.
The result for TATGCCACAGGGCAAGACACCAAAGGTCAC reads 5.17.
With TTTGGGGAAGGATAAAATGAAATCGCCTGA, the binding signal (log2 normalized intensity) is -1.2.
The result for ATCCTTCAACAATTCTATGAGTAGGTACAA reads 0.687; that for CTTAAAGTGTAAATATTTGAGGACACAAAG, 0.71.
With CACTCTGGTGCCCTCTGAGTGTTTGACCTT the figure was 5.61; with GGAAGGTGGGGGAGGAGACAGCTACGGAAT, -1.3; with AAGACCTCGGCCTCATGGGCGATCCCGAAA, -1.34.
With CTCCCGGGCGCTGTCCGCCGCCTCGTGGTG the figure was -1.42; with ACAGACTTCACACTAGAAGACTCATCTCAG, -1.37.
On to TACAGTGCCATTTATCAGTGATTTCTCTTC, for which the binding signal (log2 normalized intensity) was -0.46.
Consider CCTCTGCAGCCGCCCTTTTGCCTCCGCTCC, for which the binding signal (log2 normalized intensity) is 1.21.
As to CACTAGGAGGAGGTCAAAGTGCAACTACAA, the binding signal (log2 normalized intensity) came to 6.09.
Regarding ATAAAATAGCTGCCTGTGTGTTCTGCTATT, the binding signal (log2 normalized intensity) is 1.26.
For the sequence GAACCTGCCCTCTGTCCCATGGTGTACAAG, the binding signal (log2 normalized intensity) worked out at 2.05.
Turning to TAGGCAAAAGACAGTGATTGTCACAAGACT, the binding signal (log2 normalized intensity) is -1.17.
Turning to TTTTATGTTAAGATCAAACAGGGACAGATG, the binding signal (log2 normalized intensity) was 0.165.
Take CCTGCAAGGACAAAGGTCATGTTTTCAAAC: the binding signal (log2 normalized intensity) came out at 6.34.
In the case of ACACTTGCCCTTTGCCCTCACTGGTAGAAG, the binding signal (log2 normalized intensity) is 5.8.
The result for TCTGACCTTTGTCTCCAGGCAAACTACAGT reads 4.06.
On to TGGCTGAGAGGGATAAAAGGGGAAAAGGTC, for which the binding signal (log2 normalized intensity) is 2.58.
With CTAAGGGGGAAAGTCCACGTGAGAGGGTCG, the binding signal (log2 normalized intensity) came out at 3.25.
Turning to CTCTGGGACCGCAGGGGGCTCCCGGACCCT, the binding signal (log2 normalized intensity) is 1.88.
With TTATGTACTTAGTGTTTTATGTGTATTTAC, the binding signal (log2 normalized intensity) was 2.09.
As to ATGAAAGAGACTAGTATGTAAATAAGAGCT, the binding signal (log2 normalized intensity) was -1.34.
In the case of GGCACTGCTCCCTGCCCCTACCCCCACCCT, the binding signal (log2 normalized intensity) was 5.76.
Take TACATTCCAAATACGATAATGTCAAACATC: the binding signal (log2 normalized intensity) is -1.15.
With ACCAAAGGAGTCCTGGCTGACAGATACCGT, the binding signal (log2 normalized intensity) was -1.3.
Regarding GAGGACAACCAGAGGTCACTTTTATCACCA, the binding signal (log2 normalized intensity) stood at 2.05.
For AAACTCCTTCAGTTCTTATCTCGTACTTCT, the binding signal (log2 normalized intensity) turned out to be 0.967.
In the case of AGGGTTACAAACTTCAAGGTCCATTTGAGG, the binding signal (log2 normalized intensity) worked out at 2.22.
On to CATTATTAGCAGCAGGTTATCTAATGGAGA, for which the binding signal (log2 normalized intensity) is 1.06.
As to CTTTAGCACCTTCATCCAAAGATGACCTTT, the binding signal (log2 normalized intensity) turned out to be 8.24.
As for CCTGAAGGGTGTTGTGGAATGTGCTTGGAC, the binding signal (log2 normalized intensity) was found to be 2.16.
On to GCCACTGCAGGGAGGACAGACTCTGGGAGA, for which the binding signal (log2 normalized intensity) was -1.38.
The result for AGCCCCAACCCACTGTTGCCCCTTCCAAAG reads 4.73; that for TGGACTGGGGACCTGGTCTGAGATATCTTT, -0.0981.
The result for CCCACGTACATTGCACCCTCCAGGAGCCCC reads 2.14; that for CAGCTGTCTATCCTTATTTATCTTCCAGCG, 0.604; that for AAAGTCTGGCAAATGAAATGTAATCAGCAA, -1.35.
As to AGAGGTAACTCCCCCTTCATCTGGGACGTG, the binding signal (log2 normalized intensity) came to 1.76.
On to CTGTGGTACAGGCAGTGACTGGACCACGAT, for which the binding signal (log2 normalized intensity) came to 0.677.
With AAATACCCTCTTTAGGGTAGCCTGGGTTAA the figure was 0.844; with CTTCCAGATCTGGATATGCCTGGGGTTCCA, 0.394.
As for GAGTTGGAGAAGAGCAAAGATCATCTGGTG, the binding signal (log2 normalized intensity) came to 1.45.
AATAACAAACAAGAAAGTTGAGGTGAATAC: the binding signal (log2 normalized intensity) is -1.28.
With CTGAAGGCAAATTCTTAGAATTGCACTGCA the figure was -1.3.
In the case of AGAGGGACAAAATGCCCAGGATTCCTTTTT, the binding signal (log2 normalized intensity) is -1.21.
For ACAGCTAGTCTAGACTTTGCTTTCTTGGAG, the binding signal (log2 normalized intensity) worked out at 2.12.
With CCGAGGCATATTTAACTTGGCAAGGGGAGG the figure was -1.3; with GGAAGACTGATAAGAAAACTAGCAAGGATA, -1.41; with TAGCTTTCCTGTCACAAGAGATAAAGCTCT, -1.29.
As to AGAAGGAAAAGGCCTGACCTTTGCCCTCTG, the binding signal (log2 normalized intensity) was found to be 10.4.
